Results are given in words; binding and its absence hold for the method and conditions named. In cells and extracts the contact can be indirect. Some results given as binding are weak or reduced against the parent protein; the word gives no strength. For some assays here: Tags and fused reporters may be left off the sequences shown.

Amino acid sequences for entries named in this document (tags omitted).
UniProt Q15910: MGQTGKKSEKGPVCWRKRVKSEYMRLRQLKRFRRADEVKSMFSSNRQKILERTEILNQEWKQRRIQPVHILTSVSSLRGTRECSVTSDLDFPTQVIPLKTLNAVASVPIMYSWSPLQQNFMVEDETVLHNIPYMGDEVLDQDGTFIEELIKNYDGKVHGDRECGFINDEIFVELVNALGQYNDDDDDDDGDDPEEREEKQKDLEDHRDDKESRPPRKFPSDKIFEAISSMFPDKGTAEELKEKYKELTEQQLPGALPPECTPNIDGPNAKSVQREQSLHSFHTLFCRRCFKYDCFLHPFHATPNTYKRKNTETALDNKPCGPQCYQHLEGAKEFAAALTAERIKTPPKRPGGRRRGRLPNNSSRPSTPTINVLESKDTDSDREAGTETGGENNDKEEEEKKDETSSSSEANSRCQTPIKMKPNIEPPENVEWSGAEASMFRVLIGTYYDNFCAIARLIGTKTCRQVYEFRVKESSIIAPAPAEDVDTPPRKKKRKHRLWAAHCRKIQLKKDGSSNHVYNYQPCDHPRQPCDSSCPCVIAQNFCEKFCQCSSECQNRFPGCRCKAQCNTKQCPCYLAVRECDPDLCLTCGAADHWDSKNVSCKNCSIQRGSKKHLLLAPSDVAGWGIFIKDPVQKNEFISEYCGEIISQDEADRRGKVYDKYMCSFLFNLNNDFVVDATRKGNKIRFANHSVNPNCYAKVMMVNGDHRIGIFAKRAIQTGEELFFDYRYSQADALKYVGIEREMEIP
UniProt Q13547: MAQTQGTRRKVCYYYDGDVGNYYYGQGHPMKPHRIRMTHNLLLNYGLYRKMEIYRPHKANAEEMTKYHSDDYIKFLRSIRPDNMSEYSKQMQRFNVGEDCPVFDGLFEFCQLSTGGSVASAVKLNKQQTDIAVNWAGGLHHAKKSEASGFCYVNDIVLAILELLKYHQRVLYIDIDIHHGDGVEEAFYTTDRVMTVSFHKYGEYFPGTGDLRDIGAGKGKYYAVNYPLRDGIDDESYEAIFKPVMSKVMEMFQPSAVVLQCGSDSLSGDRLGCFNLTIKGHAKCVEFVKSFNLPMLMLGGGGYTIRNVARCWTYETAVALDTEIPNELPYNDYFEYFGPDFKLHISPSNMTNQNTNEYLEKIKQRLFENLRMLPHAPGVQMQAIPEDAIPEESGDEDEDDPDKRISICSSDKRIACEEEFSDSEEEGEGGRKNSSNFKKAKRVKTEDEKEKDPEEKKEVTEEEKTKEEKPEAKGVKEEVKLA

For four molecules, binding results are on record in PMC7895950.

One assay has as its target Flag-Snail1, O95863. Put plainly: co-IP; 293T cells transfected with plasmids as indicated for 24 h; RIPA lysates, antibodies and protein A/G magnetic beads, western blot. As to conditions: remark: other sources report otherwise. (Immunoblotting shows a protein as a band on a membrane.)
Assay [1] has as its target Ezh2 (in 293T cells), Q15910. The description is as above. Conditions: remark: other sources report otherwise.
For assay [2], the target named is Ring1b (endogenous, breast cell lines) (human (endogenous in MCF-10A, MCF-7, MDA-MB-231)) (UniProt Q99496). Put plainly: co-IP; lysate of 231 (MDA-MB-231) cells, endogenous proteins; antibodies and protein A/G magnetic beads, western blot.
For a further assay, the target named is Ezh2 (in 293T cells) (UniProt Q15910). The assay can be described thus: co-IP; 293T cells transfected with plasmids as indicated for 24 h; RIPA lysates, antibodies and protein A/G magnetic beads, western blot.
The target of the next assay is HA-HDAC1 (UniProt Q13547). The description is as above.

B1: Flag-DDX3X, O00571 1-662 (protein)
chain: MSHVAVENALGLDQQFAGLDLNSSDNQSGGSTASKGRYIPPHLRNREATKGFYDKDSSGWSSSKDKDAYSSFGSRSDSRGKSSFFSDRGSGSRGRFDDRGRSDYDGIGSRGDRSGFGKFERGGNSRWCDKSDEDDWSKPLPPSERLEQELFSGGNTGINFEKYDDIPVEATGNNCPPHIESFSDVEMGEIIMGNIELTRYTRPTPVQKHAIPIIKEKRDLMACAQTGSGKTAAFLLPILSQIYSDGPGEALRAMKENGRYGRRKQYPISLVLAPTRELAVQIYEEARKFSYRSRVRPCVVYGGADIGQQIRDLERGCHLLVATPGRLVDMMERGKIGLDFCKYLVLDEADRMLDMGFEPQIRRIVEQDTMPPKGVRHTMMFSATFPKEIQMLARDFLDEYIFLAVGRVGSTSENITQKVVWVEESDKRSFLLDLLNATGKDSLTLVFVETKKGADSLEDFLYHEGYACTSIHGDRSQRDREEALHQFRSGKSPILVATAVAARGLDISNVKHVINFDLPSDIEEYVHRIGRTGRVGNLGLATSFFNERNINITKDLLDLLVEAKQEVPSWLENMAYEHHYKGSSRGRSKSSRFSGGFGARDYRQSSGASSSSFSSSRASSSRSGGGGHGSSRGFGGGGYGGFYNSDGYGGNYNSQGVDWWGN
With B1, the binding result with Flag-Snail1, O95863 is given as “no binding”.

B2: HA-Ring1b, Q99496 1-336 (protein)
chain: MSQAVQTNGTQPLSKTWELSLYELQRTPQEAITDGLEIVVSPRSLHSELMCPICLDMLKNTMTTKECLHRFCADCIITALRSGNKECPTCRKKLVSKRSLRPDPNFDALISKIYPSRDEYEAHQERVLARINKHNNQQALSHSIEEGLKIQAMNRLQRGKKQQIENGSGAEDNGDSSHCSNASTHSNQEAGPSNKRTKTSDDSGLELDNNNAAMAIDPVMDGASEIELVFRPHPTLMEKDDSAQTRYIKTSGNATVDHLSKYLAVRLALEELRSKGESNQMNLDTASEKQYTIYIATASGQFTVLNGSFSLELVSEKYWKVNKPMELYYAPTKEHK
Regarding B2, the binding result in assay [1] was “binds”.

B3: CBX4 (endogenous, breast cell lines) (protein, UniProt O00257 1-560)
chain: MELPAVGEHVFAVESIEKKRIRKGRVEYLVKWRGWSPKYNTWEPEENILDPRLLIAFQNRERQEQLMGYRKRGPKPKPLVVQVPTFARRSNVLTGLQDSSTDNRAKLDLGAQGKGQGHQYELNSKKHHQYQPHSKERAGKPPPPGKSGKYYYQLNSKKHHPYQPDPKMYDLQYQGGHKEAPSPTCPDLGAKSHPPDKWAQGAGAKGYLGAVKPLAGAAGAPGKGSEKGPPNGMMPAPKEAVTGNGIGGKMKIVKNKNKNGRIVIVMSKYMENGMQAVKIKSGEVAEGEARSPSHKKRAADERHPPADRTFKKAAGAEEKKVEAPPKRREEEVSGVSDPQPQDAGSRKLSPTKEAFGEQPLQLTTKPDLLAWDPARNTHPPSHHPHPHPHHHHHHHHHHHHAVGLNLSHVRKRCLSETHGEREPCKKRLTARSISTPTCLGGSPAAERPADLPPAAALPQPEVILLDSDLDEPIDLRCVKTRSEAGEPPSSLQVKPETPASAAVAVAAAAAPTTTAEKPPAEAQDEPAESLSEFKPFFGNIIITDVTANCLTVTFKEYVTV
On to B3, for which the binding entry in assay [2] is reported as “binds”.

B4: Flag-Twist2 (protein, UniProt Q8WVJ9 1-160)
chain: MEEGSSSPVSPVDSLGTSEEELERQPKRFGRKRRYSKKSSEDGSPTPGKRGKKGSPSAQSFEELQSQRILANVRERQRTQSLNEAFAALRKIIPTLPSDKLSKIQTLKLAARYIDFLYQVLQSDEMDNKMTSCSYVAHERLSYAFSVWRMEGAWSMSASH
With B4, the binding entry with Ezh2 (in 293T cells) and with HA-HDAC1 was “binds” throughout.
